The other results are listed elsewhere or left out.
Columns and labels:
Assay in all cases: glycan array binding signal (z-score within array); higher = stronger binding
Conditions in all cases: glycan notation: IUPAC condensed, linker removed
[1] = target: Gal(b1-4)GlcNAc(b1-2)[Gal(b1-4)GlcNAc(b1-6)]Man(a1-6)[GlcNAc(b1-4)][Gal(b1-4)GlcNAc(b1-2)Man(a1-3)]Man(b1-4)GlcNAc(b1-4)GlcNAc
Outline: (§1)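 From the Consortium for Functional Glycomics database, 3228 arrays were curated, keeping only those whose protein sequence was available. Binding is given as a within-array Z-score averaged across arrays sharing a protein sequence and across linkers. Negative Z-scores can be read as non-binding.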

[2] = target: Gal(b1-4)GlcNAc(b1-2)[Gal(b1-4)GlcNAc(b1-6)]Man(a1-6)[GlcNAc(b1-4)][Gal(b1-4)GlcNAc(b1-2)[Gal(b1-4)GlcNAc(b1-4)]Man(a1-3)]Man(b1-4)GlcNAc(b1-4)[Fuc(a1-6)]GlcNAc
Outline: as §1

[3] = target: Gal(b1-4)GlcNAc(b1-3)Gal(b1-3)GalNAc
Outline: as §1

[4] = target: Gal(b1-4)GlcNAc(b1-3)Gal(b1-3)GlcNAc
Outline: as §1

[5] = target: Gal(b1-4)GlcNAc(b1-3)Gal(b1-4)Glc
Outline: as §1

[6] = target: Gal(b1-4)GlcNAc(b1-3)Gal(b1-4)GlcNAc
Outline: as §1

[7] = target: Gal(b1-4)GlcNAc(b1-3)Gal(b1-4)GlcNAc(b1-2)Man(a1-3)[Gal(b1-4)GlcNAc(b1-3)Gal(b1-4)GlcNAc(b1-2)Man(a1-6)]Man(b1-4)GlcNAc(b1-4)GlcNAc
Outline: as §1

[8] = target: Gal(b1-4)GlcNAc(b1-3)Gal(b1-4)GlcNAc(b1-2)Man(a1-3)[Gal(b1-4)GlcNAc(b1-3)Gal(b1-4)GlcNAc(b1-2)Man(a1-6)]Man(b1-4)GlcNAc(b1-4)[Fuc(a1-6)]GlcNAc
Outline: as §1

[9] = target: Gal(b1-4)GlcNAc(b1-3)Gal(b1-4)GlcNAc(b1-2)[Gal(b1-4)GlcNAc(b1-3)Gal(b1-4)GlcNAc(b1-6)]Man(a1-6)[Gal(b1-4)GlcNAc(b1-3)Gal(b1-4)GlcNAc(b1-2)Man(a1-3)]Man(b1-4)GlcNAc(b1-4)GlcNAc
Outline: as §1

[10] = target: Gal(b1-4)GlcNAc(b1-3)Gal(b1-4)GlcNAc(b1-2)[Gal(b1-4)GlcNAc(b1-3)Gal(b1-4)GlcNAc(b1-6)]Man(a1-6)[Gal(b1-4)GlcNAc(b1-3)Gal(b1-4)GlcNAc(b1-2)Man(a1-3)]Man(b1-4)GlcNAc(b1-4)[Fuc(a1-6)]GlcNAc
Outline: as §1

[11] = target: Gal(b1-4)GlcNAc(b1-3)Gal(b1-4)GlcNAc(b1-3)Gal(b1-4)GlcNAc
Outline: as §1

[12] = target: Gal(b1-4)GlcNAc(b1-3)Gal(b1-4)GlcNAc(b1-3)Gal(b1-4)GlcNAc(b1-2)Man(a1-3)[Gal(b1-4)GlcNAc(b1-3)Gal(b1-4)GlcNAc(b1-3)Gal(b1-4)GlcNAc(b1-2)Man(a1-6)]Man(b1-4)GlcNAc(b1-4)GlcNAc
Outline: as §1

[13] = target: Gal(b1-4)GlcNAc(b1-3)Gal(b1-4)GlcNAc(b1-3)Gal(b1-4)GlcNAc(b1-2)Man(a1-3)[Gal(b1-4)GlcNAc(b1-3)Gal(b1-4)GlcNAc(b1-3)Gal(b1-4)GlcNAc(b1-2)Man(a1-6)]Man(b1-4)GlcNAc(b1-4)[Fuc(a1-6)]GlcNAc
Outline: as §1

[14] = target: Gal(b1-4)GlcNAc(b1-3)Gal(b1-4)GlcNAc(b1-3)Gal(b1-4)GlcNAc(b1-2)[Gal(b1-4)GlcNAc(b1-3)Gal(b1-4)GlcNAc(b1-3)Gal(b1-4)GlcNAc(b1-6)]Man(a1-6)[Gal(b1-4)GlcNAc(b1-3)Gal(b1-4)GlcNAc(b1-3)Gal(b1-4)GlcNAc(b1-2)Man(a1-3)]Man(b1-4)GlcNAc(b1-4)[Fuc(a1-6)]GlcNAc
Outline: as §1

[15] = target: Gal(b1-4)GlcNAc(b1-3)Gal(b1-4)GlcNAc(b1-3)Gal(b1-4)GlcNAc(b1-3)Gal(b1-4)GlcNAc(b1-2)Man(a1-3)[Gal(b1-4)GlcNAc(b1-3)Gal(b1-4)GlcNAc(b1-3)Gal(b1-4)GlcNAc(b1-3)Gal(b1-4)GlcNAc(b1-2)Man(a1-6)]Man(b1-4)GlcNAc(b1-4)GlcNAc
Outline: as §1

[16] = target: Gal(b1-4)GlcNAc(b1-3)Gal(b1-4)GlcNAc(b1-3)Gal(b1-4)GlcNAc(b1-3)Gal(b1-4)GlcNAc(b1-2)Man(a1-3)[Gal(b1-4)GlcNAc(b1-3)Gal(b1-4)GlcNAc(b1-3)Gal(b1-4)GlcNAc(b1-3)Gal(b1-4)GlcNAc(b1-2)Man(a1-6)]Man(b1-4)GlcNAc(b1-4)[Fuc(a1-6)]GlcNAc
Outline: as §1

[17] = target: Gal(b1-4)GlcNAc(b1-3)Gal(b1-4)GlcNAc(b1-3)Gal(b1-4)GlcNAc(b1-3)Gal(b1-4)GlcNAc(b1-2)[Gal(b1-4)GlcNAc(b1-3)Gal(b1-4)GlcNAc(b1-3)Gal(b1-4)GlcNAc(b1-3)Gal(b1-4)GlcNAc(b1-6)]Man(a1-6)[Gal(b1-4)GlcNAc(b1-3)Gal(b1-4)GlcNAc(b1-3)Gal(b1-4)GlcNAc(b1-3)Gal(b1-4)GlcNAc(b1-2)Man(a1-3)]Man(b1-4)GlcNAc(b1-4)[Fuc(a1-6)]GlcNAc
Outline: as §1

[18] = target: Gal(b1-4)GlcNAc(b1-3)Gal(b1-4)GlcNAc(b1-3)Gal(b1-4)GlcNAc(b1-3)Gal(b1-4)GlcNAc(b1-3)Gal(b1-4)GlcNAc(b1-2)Man(a1-3)[Gal(b1-4)GlcNAc(b1-3)Gal(b1-4)GlcNAc(b1-3)Gal(b1-4)GlcNAc(b1-3)Gal(b1-4)GlcNAc(b1-3)Gal(b1-4)GlcNAc(b1-2)Man(a1-6)]Man(b1-4)GlcNAc(b1-4)GlcNAc
Outline: as §1

[19] = target: Gal(b1-4)GlcNAc(b1-3)Gal(b1-4)GlcNAc(b1-3)Gal(b1-4)GlcNAc(b1-3)Gal(b1-4)GlcNAc(b1-3)Gal(b1-4)GlcNAc(b1-2)Man(a1-3)[Gal(b1-4)GlcNAc(b1-3)Gal(b1-4)GlcNAc(b1-3)Gal(b1-4)GlcNAc(b1-3)Gal(b1-4)GlcNAc(b1-3)Gal(b1-4)GlcNAc(b1-2)Man(a1-6)]Man(b1-4)GlcNAc(b1-4)[Fuc(a1-6)]GlcNAc
Outline: as §1

[20] = target: Gal(b1-4)GlcNAc(b1-3)Gal(b1-4)GlcNAc(b1-3)Gal(b1-4)GlcNAc(b1-3)Gal(b1-4)GlcNAc(b1-3)Gal(b1-4)GlcNAc(b1-2)[Gal(b1-4)GlcNAc(b1-3)Gal(b1-4)GlcNAc(b1-3)Gal(b1-4)GlcNAc(b1-3)Gal(b1-4)GlcNAc(b1-3)Gal(b1-4)GlcNAc(b1-6)]Man(a1-6)[Gal(b1-4)GlcNAc(b1-3)Gal(b1-4)GlcNAc(b1-3)Gal(b1-4)GlcNAc(b1-3)Gal(b1-4)GlcNAc(b1-3)Gal(b1-4)GlcNAc(b1-2)Man(a1-3)]Man(b1-4)GlcNAc(b1-4)[Fuc(a1-6)]GlcNAc
Outline: as §1

[21] = target: Gal(b1-4)GlcNAc(b1-3)Gal(b1-4)GlcNAc(b1-3)Gal(b1-4)GlcNAc(b1-3)Gal(b1-4)GlcNAc(b1-3)Gal(b1-4)GlcNAc(b1-3)Gal(b1-4)GlcNAc(b1-2)Man(a1-3)[Gal(b1-4)GlcNAc(b1-3)Gal(b1-4)GlcNAc(b1-3)Gal(b1-4)GlcNAc(b1-3)Gal(b1-4)GlcNAc(b1-3)Gal(b1-4)GlcNAc(b1-3)Gal(b1-4)GlcNAc(b1-2)Man(a1-6)]Man(b1-4)GlcNAc(b1-4)GlcNAc
Outline: as §1

[22] = target: Gal(b1-4)GlcNAc(b1-3)Gal(b1-4)GlcNAc(b1-3)GalNAc
Outline: as §1

[23] = target: Gal(b1-4)GlcNAc(b1-3)Gal(b1-4)GlcNAc(b1-3)[Gal(b1-4)GlcNAc(b1-3)Gal(b1-4)GlcNAc(b1-6)]GalNAc
Outline: as §1

[24] = target: Gal(b1-4)GlcNAc(b1-3)Gal(b1-4)GlcNAc(b1-6)[Gal(b1-3)]GalNAc
Outline: as §1

[25] = target: Gal(b1-4)GlcNAc(b1-3)Gal(b1-4)[Fuc(a1-3)]GlcNAc(b1-3)Gal(b1-4)[Fuc(a1-3)]GlcNAc
Outline: as §1

[26] = target: Gal(b1-4)GlcNAc(b1-3)GalNAc
Outline: as §1

[27] = target: Gal(b1-4)GlcNAc(b1-3)[Fuc(a1-3)GlcNAc(b1-6)]Gal(b1-4)Glc
Outline: as §1

[28] = target: Gal(b1-4)GlcNAc(b1-3)[Gal(b1-4)GlcNAc(b1-6)]Gal(b1-4)GlcNAc
Outline: as §1

[29] = target: Gal(b1-4)GlcNAc(b1-3)[GlcNAc(b1-6)]Gal(b1-4)GlcNAc
Outline: as §1

[30] = target: Gal(b1-4)GlcNAc(b1-6)Gal(b1-4)GlcNAc
Outline: as §1

[31] = target: Gal(b1-4)GlcNAc(b1-6)GalNAc
Outline: as §1

[32] = target: Gal(b1-4)GlcNAc(b1-6)[Gal(b1-3)]GalNAc
Outline: as §1

[33] = target: Gal(b1-4)GlcNAc(b1-6)[Gal(b1-4)GlcNAc(b1-3)]GalNAc
Outline: as §1

[34] = target: Gal(b1-4)GlcNAc6P
Outline: as §1

[35] = target: Gal(b1-6)Gal
Outline: as §1

[36] = target: Gal3S(b1-3)GalNAc
Outline: as §1

[37] = target: Gal3S(b1-3)GlcNAc
Outline: as §1

[38] = target: Gal3S(b1-3)[Fuc(a1-4)]GlcNAc
Outline: as §1

B1: PX9961C-bth-497-22-497 (Bacteroides thetaiotaomicron) (protein)
chain: DWLDLNTTSSVETGQAIVTLDDAQIALNGIYRLASGHSYYGDNYWYYGDCRAADVQARITKGDGKRVSPYYEYNVLASDNLNIVLPWNTVYKVIRQTNNLIQKIESGSIQSSDTKELNRIKSEALVMRGLSLFNLTRLFGMPYTNDKGASLGVPIETSPSDPTHKPSRSTVAQCYEQVVSDMSNALSGLRQETSNGYINYWAAQALLSRVYLNMGEYQKAYDAATDVIKNNGGRYQLYSYEEYPNVWGQDFQSESLFELYITLSEPSGGTGGEGAPMVYANEATVDWNNLILSEDFLNLLNEDPKDVRHCLTKESVIENNTGLPAAAMHEKVYLAKFPGKTGDDPKTNNICIIRLSEVYLNAAEAGLKKGTDIEEAQGYLNDIISRRTTDTSQQVSTETFTLDRILKERRKELVGEGEVFYDYLRNGLAIERKGSWHLETLKASNAQKIEATDLRIALPIPQSEIDANPNIQQNPR
In the case of B1, the “glycan array binding signal (z-score)” value [1] is reported as 0.035, the “glycan array binding signal (z-score)” value [2] is reported as 0.452 and the “glycan array binding signal (z-score)” value [3] is reported as 0.472. For the same binder, the “glycan array binding signal (z-score)” value [4] was 0.182, the “glycan array binding signal (z-score)” value [5] was -0.534 and the “glycan array binding signal (z-score)” value [6] was 0.061. For the same binder, the “glycan array binding signal (z-score)” value [7] was 1.26, the “glycan array binding signal (z-score)” value [8] was 1.04 and the “glycan array binding signal (z-score)” value [9] was 2.36. The “glycan array binding signal (z-score)” value [10] was 2.08, the “glycan array binding signal (z-score)” value [11] was 0.211 and the “glycan array binding signal (z-score)” value [12] was 0.401. The “glycan array binding signal (z-score)” value [13] was 1.06, the “glycan array binding signal (z-score)” value [14] was 0.32 and the “glycan array binding signal (z-score)” value [15] was 0.247. For the same binder, the “glycan array binding signal (z-score)” value [16] was 1.14, the “glycan array binding signal (z-score)” value [17] was -0.171 and the “glycan array binding signal (z-score)” value [18] was 0.902. For the same binder, the “glycan array binding signal (z-score)” value [19] was 0.403, the “glycan array binding signal (z-score)” value [20] was 7.33 and the “glycan array binding signal (z-score)” value [21] was 0.289. For the same binder, the “glycan array binding signal (z-score)” value [22] was -0.631, the “glycan array binding signal (z-score)” value [23] was 1.22 and the “glycan array binding signal (z-score)” value [24] was -0.428. For the same binder, the “glycan array binding signal (z-score)” value [25] was -0.376, the “glycan array binding signal (z-score)” value [26] was -0.535 and the “glycan array binding signal (z-score)” value [27] was -0.758. The “glycan array binding signal (z-score)” value [28] was 0.241, the “glycan array binding signal (z-score)” value [29] was -0.515 and the “glycan array binding signal (z-score)” value [30] was -0.211. The “glycan array binding signal (z-score)” value [31] was -0.208, the “glycan array binding signal (z-score)” value [32] was -0.222 and the “glycan array binding signal (z-score)” value [33] was -0.254. For the same binder, the “glycan array binding signal (z-score)” value [34] was -0.575, the “glycan array binding signal (z-score)” value [35] was -0.433 and the “glycan array binding signal (z-score)” value [36] was -0.529. The “glycan array binding signal (z-score)” value [37] was -0.219 and the “glycan array binding signal (z-score)” value [38] was -0.44.
